These are yes or no findings as the source states them, for the method shown. Binding seen in cells or lysates may run through a third protein. Some results given as binding are weak or reduced against the parent protein; the word gives no strength.
How the values were obtained:
[1] = biological target: Atphot2I (Arabidopsis thaliana) (UniProt P93025); test: co-IP; microsomal fractions of N. benthamiana leaves co-expressing phot2I (induced with 5 μM β-oestradiol for 12 h) and the GFP protein, leaves irradiated with strong blue light (120 μmol m^-2 s^-1) for 30 min; phot2 antibody on Protein G dynabeads, 3–4 h at 4 °C; western blot with anti-GFP
[2] = biological target: PHOT2–NtermGFP (Arabidopsis thaliana) (UniProt P93025); test: split reporter; BiFC with N- and C-terminal GFP fragments, co-expressed transiently in N. benthamiana leaves (Agrobacterium cultures mixed 1:1), confocal microscopy
[3] = biological target: PHOT2–CtermGFP (Arabidopsis thaliana) (UniProt P93025); test: as above

Protein sequences, listed by entry. Tags and fused reporters are not part of them.
UniProt P93025: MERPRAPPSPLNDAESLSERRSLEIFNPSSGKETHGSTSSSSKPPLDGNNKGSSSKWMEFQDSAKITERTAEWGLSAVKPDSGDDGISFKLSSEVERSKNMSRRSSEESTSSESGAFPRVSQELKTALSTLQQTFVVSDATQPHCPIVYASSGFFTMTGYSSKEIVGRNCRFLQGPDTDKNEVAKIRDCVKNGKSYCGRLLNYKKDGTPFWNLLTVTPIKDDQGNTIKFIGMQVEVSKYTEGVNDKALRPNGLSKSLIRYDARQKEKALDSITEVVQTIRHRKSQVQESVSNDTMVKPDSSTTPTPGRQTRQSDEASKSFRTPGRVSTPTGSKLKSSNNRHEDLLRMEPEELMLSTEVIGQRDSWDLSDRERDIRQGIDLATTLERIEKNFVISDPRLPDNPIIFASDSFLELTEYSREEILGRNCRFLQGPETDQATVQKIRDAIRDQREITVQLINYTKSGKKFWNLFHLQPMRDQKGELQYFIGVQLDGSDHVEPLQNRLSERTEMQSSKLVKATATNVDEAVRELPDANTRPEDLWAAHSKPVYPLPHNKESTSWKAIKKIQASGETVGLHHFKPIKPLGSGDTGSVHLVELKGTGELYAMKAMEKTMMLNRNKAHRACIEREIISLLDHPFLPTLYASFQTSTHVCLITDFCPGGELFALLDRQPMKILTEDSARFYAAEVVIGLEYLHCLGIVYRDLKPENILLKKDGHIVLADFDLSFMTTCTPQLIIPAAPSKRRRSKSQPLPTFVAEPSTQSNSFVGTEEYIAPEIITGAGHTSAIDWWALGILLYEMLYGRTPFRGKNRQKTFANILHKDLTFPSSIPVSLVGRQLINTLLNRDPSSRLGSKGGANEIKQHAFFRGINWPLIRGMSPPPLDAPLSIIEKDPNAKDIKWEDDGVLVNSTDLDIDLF
UniProt O04209: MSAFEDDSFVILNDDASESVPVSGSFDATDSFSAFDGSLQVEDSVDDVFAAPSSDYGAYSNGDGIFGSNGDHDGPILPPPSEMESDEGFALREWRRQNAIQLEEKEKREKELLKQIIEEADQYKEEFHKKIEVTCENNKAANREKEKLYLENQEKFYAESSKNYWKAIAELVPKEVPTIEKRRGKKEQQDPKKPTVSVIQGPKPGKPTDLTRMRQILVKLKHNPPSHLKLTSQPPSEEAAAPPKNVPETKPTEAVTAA
UniProt O23140: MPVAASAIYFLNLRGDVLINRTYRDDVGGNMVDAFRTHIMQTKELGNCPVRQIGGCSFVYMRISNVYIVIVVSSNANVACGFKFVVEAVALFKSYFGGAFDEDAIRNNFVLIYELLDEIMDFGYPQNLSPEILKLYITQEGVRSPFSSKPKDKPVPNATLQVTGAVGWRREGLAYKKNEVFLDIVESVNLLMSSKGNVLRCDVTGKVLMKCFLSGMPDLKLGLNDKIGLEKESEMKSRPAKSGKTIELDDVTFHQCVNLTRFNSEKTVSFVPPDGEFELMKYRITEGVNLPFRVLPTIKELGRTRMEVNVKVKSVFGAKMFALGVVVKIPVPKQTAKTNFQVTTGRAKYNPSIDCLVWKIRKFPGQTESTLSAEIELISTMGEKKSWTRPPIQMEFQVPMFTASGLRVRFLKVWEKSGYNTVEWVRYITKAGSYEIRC

Substance	binding [1]	binding [2]	binding [3]
CLC2–NtermGFP (from UniProt O04209 1-258)			binds
CtermGFP–AP2μ (from UniProt O23140 1-438)		no binding	
GFP–AP2μ (from UniProt O23140 1-438)	no binding		
NtermGFP–AP2μ (from UniProt O23140 1-438)			no binding

More lines, now with the values ahead:

binding [1]	binding [2]	binding [3]	Substance
binds			AtCLC2–GFP (from UniProt O04209 1-258)
	binds		CLC2–CtermGFP (from UniProt O04209 1-258)

Source: publication PMC4071840
